Laboratory results published in the supplement of paper PMC8728848.
The list shows a part of the results.

Key:
Test in all cases: glycan array binding signal (z-score within array); higher = stronger binding
Details in all cases: glycan notation: IUPAC condensed, linker removed; mutation: R144S
[1] = target: Neu5Ac(a2-3)Gal(b1-3)GlcNAc(b1-3)Gal(b1-3)GlcNAc
Method in brief: (§1)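 The binding signal is a Z-score computed within each array. Data were drawn from 3228 arrays in the Consortium for Functional Glycomics database, restricted to those with a known protein sequence. Scores were averaged over arrays of the same protein sequence at different concentrations or buffers, and over linkers, and negative values can be taken as non-binding.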

[2] = target: Neu5Ac(a2-3)Gal(b1-3)GlcNAc(b1-3)Gal(b1-4)GlcNAc
Method in brief: as §1

[3] = target: Neu5Ac(a2-3)Gal(b1-3)GlcNAc(b1-3)GalNAc
Method in brief: as §1

[4] = target: Neu5Ac(a2-3)Gal(b1-3)GlcNAc6S
Method in brief: as §1

[5] = target: Neu5Ac(a2-3)Gal(b1-3)[Fuc(a1-4)]GlcNAc
Method in brief: as §1

[6] = target: Neu5Ac(a2-3)Gal(b1-3)[Fuc(a1-4)]GlcNAc(b1-3)Gal(b1-3)[Fuc(a1-4)]GlcNAc
Method in brief: as §1

[7] = target: Neu5Ac(a2-3)Gal(b1-3)[Fuc(a1-4)]GlcNAc(b1-3)Gal(b1-4)[Fuc(a1-3)]GlcNAc
Method in brief: as §1

[8] = target: Neu5Ac(a2-3)Gal(b1-3)[Neu5Ac(a2-3)Gal(b1-4)]GlcNAc
Method in brief: as §1

[9] = target: Neu5Ac(a2-3)Gal(b1-3)[Neu5Ac(a2-6)]GalNAc
Method in brief: as §1

[10] = target: Neu5Ac(a2-3)Gal(b1-4)Glc
Method in brief: as §1

[11] = target: Neu5Ac(a2-3)Gal(b1-4)GlcNAc
Method in brief: as §1

[12] = target: Neu5Ac(a2-3)Gal(b1-4)GlcNAc(b1-2)Man(a1-3)[GlcNAc(b1-2)Man(b1-4)GlcNAc(b1-2)Man(a1-6)]Man(b1-4)GlcNAc(b1-4)GlcNAc
Method in brief: as §1

[13] = target: Neu5Ac(a2-3)Gal(b1-4)GlcNAc(b1-2)Man(a1-3)[Neu5Ac(a2-6)Gal(b1-4)GlcNAc(b1-2)Man(a1-6)]Man(b1-4)GlcNAc(b1-4)GlcNAc
Method in brief: as §1

[14] = target: Neu5Ac(a2-3)Gal(b1-4)GlcNAc(b1-3)Gal(b1-3)GlcNAc
Method in brief: as §1

[15] = target: Neu5Ac(a2-3)Gal(b1-4)GlcNAc(b1-3)Gal(b1-4)GlcNAc
Method in brief: as §1

[16] = target: Neu5Ac(a2-3)Gal(b1-4)GlcNAc(b1-3)Gal(b1-4)GlcNAc(b1-3)Gal(b1-4)GlcNAc
Method in brief: as §1

[17] = target: Neu5Ac(a2-3)Gal(b1-4)GlcNAc(b1-3)Gal(b1-4)[Fuc(a1-3)]GlcNAc
Method in brief: as §1

[18] = target: Neu5Ac(a2-3)Gal(b1-4)GlcNAc(b1-3)GalNAc
Method in brief: as §1

[19] = target: Neu5Ac(a2-3)Gal(b1-4)GlcNAc(b1-6)[Gal(b1-3)]GalNAc
Method in brief: as §1

[20] = target: Neu5Ac(a2-3)Gal(b1-4)GlcNAc(b1-6)[Neu5Ac(a2-3)Gal(b1-3)]GalNAc
Method in brief: as §1

[21] = target: Neu5Ac(a2-3)Gal(b1-4)GlcNAc6S
Method in brief: as §1

[22] = target: Neu5Ac(a2-3)Gal(b1-4)[Fuc(a1-3)]GlcNAc
Method in brief: as §1

[23] = target: Neu5Ac(a2-3)Gal(b1-4)[Fuc(a1-3)]GlcNAc(b1-3)Gal
Method in brief: as §1

[24] = target: Neu5Ac(a2-3)Gal(b1-4)[Fuc(a1-3)]GlcNAc(b1-3)Gal(b1-4)GlcNAc
Method in brief: as §1

[25] = target: Neu5Ac(a2-3)Gal(b1-4)[Fuc(a1-3)]GlcNAc(b1-3)Gal(b1-4)[Fuc(a1-3)]GlcNAc(b1-3)Gal(b1-4)[Fuc(a1-3)]GlcNAc
Method in brief: as §1

[26] = target: Neu5Ac(a2-3)Gal(b1-4)[Fuc(a1-3)]GlcNAc(b1-3)GalNAc
Method in brief: as §1

[27] = target: Neu5Ac(a2-3)Gal(b1-4)[Fuc(a1-3)]GlcNAc(b1-6)[Gal(b1-3)]GalNAc
Method in brief: as §1

[28] = target: Neu5Ac(a2-3)Gal(b1-4)[Fuc(a1-3)]GlcNAc(b1-6)[Neu5Ac(a2-3)Gal(b1-3)]GalNAc
Method in brief: as §1

[29] = target: Neu5Ac(a2-3)Gal(b1-4)[Fuc(a1-3)]GlcNAc6S
Method in brief: as §1

[30] = target: Neu5Ac(a2-3)Gal6S(b1-4)GlcNAc
Method in brief: as §1

[31] = target: Neu5Ac(a2-3)Gal6S(b1-4)[Fuc(a1-3)]GlcNAc
Method in brief: as §1

[32] = target: Neu5Ac(a2-3)GalNAc
Method in brief: as §1

[33] = target: Neu5Ac(a2-3)GalNAc(b1-4)GlcNAc
Method in brief: as §1

[34] = target: Neu5Ac(a2-3)[GalNAc(b1-4)]Gal(b1-4)Glc
Method in brief: as §1

[35] = target: Neu5Ac(a2-3)[GalNAc(b1-4)]Gal(b1-4)GlcNAc
Method in brief: as §1

[36] = target: Neu5Ac(a2-3)[GalNAc(b1-4)]Gal(b1-4)GlcNAc(b1-3)GalNAc
Method in brief: as §1

[37] = target: Neu5Ac(a2-3)[Neu5Ac(a2-6)]GalNAc
Method in brief: as §1

[38] = target: Neu5Ac(a2-6)Gal
Method in brief: as §1

[39] = target: Neu5Ac(a2-6)Gal(b1-4)Glc
Method in brief: as §1

[40] = target: Neu5Ac(a2-6)Gal(b1-4)GlcNAc
Method in brief: as §1

B1: Gal 3 (Homo sapiens), P17931 (protein)
chain: MADNFSLHDALSGSGNPNPQGWPGAWGNQPAGAGGYPGASYPGAYPGQAPPGAYPGQAPPGAYHGAPGAYPGAPAPGVYPGPPSGPGAYPSSGQPSAPGAYPATGPYGAPAGPLIVPYNLPLPGGVVPRMLITILGTVKPNANSILDFQRGNDVAFHFNPRFNENNRRVIVCNTKLDNNWGREERQSVFPFESGKPFKIQVLVEPDHFKVAVNDAHLLQYNHRVKKLNEISKLGISGDIDLTSASYTMI
In the case of B1, the “glycan array binding signal (z-score)” value [1] is reported as -0.356, the “glycan array binding signal (z-score)” value [2] is reported as -0.365 and the “glycan array binding signal (z-score)” value [3] is reported as -0.363. For the same binder, the “glycan array binding signal (z-score)” value [4] was -0.365, the “glycan array binding signal (z-score)” value [5] was -0.351 and the “glycan array binding signal (z-score)” value [6] was -0.361. The “glycan array binding signal (z-score)” value [7] was -0.364, the “glycan array binding signal (z-score)” value [8] was -0.314 and the “glycan array binding signal (z-score)” value [9] was -0.36. For the same binder, the “glycan array binding signal (z-score)” value [10] was -0.355, the “glycan array binding signal (z-score)” value [11] was -0.361 and the “glycan array binding signal (z-score)” value [12] was -0.354. For the same binder, the “glycan array binding signal (z-score)” value [13] was -0.357, the “glycan array binding signal (z-score)” value [14] was -0.361 and the “glycan array binding signal (z-score)” value [15] was -0.359. For the same binder, the “glycan array binding signal (z-score)” value [16] was 0.844, the “glycan array binding signal (z-score)” value [17] was -0.36 and the “glycan array binding signal (z-score)” value [18] was -0.36. The “glycan array binding signal (z-score)” value [19] was -0.362, the “glycan array binding signal (z-score)” value [20] was -0.357 and the “glycan array binding signal (z-score)” value [21] was -0.365. The “glycan array binding signal (z-score)” value [22] was -0.36, the “glycan array binding signal (z-score)” value [23] was -0.371 and the “glycan array binding signal (z-score)” value [24] was -0.353. For the same binder, the “glycan array binding signal (z-score)” value [25] was -0.361, the “glycan array binding signal (z-score)” value [26] was -0.346 and the “glycan array binding signal (z-score)” value [27] was -0.351. For the same binder, the “glycan array binding signal (z-score)” value [28] was -0.352, the “glycan array binding signal (z-score)” value [29] was -0.353 and the “glycan array binding signal (z-score)” value [30] was -0.354. The “glycan array binding signal (z-score)” value [31] was -0.362, the “glycan array binding signal (z-score)” value [32] was -0.363 and the “glycan array binding signal (z-score)” value [33] was -0.363. The “glycan array binding signal (z-score)” value [34] was -0.354, the “glycan array binding signal (z-score)” value [35] was -0.362 and the “glycan array binding signal (z-score)” value [36] was -0.363. For the same binder, the “glycan array binding signal (z-score)” value [37] was -0.361, the “glycan array binding signal (z-score)” value [38] was -0.361 and the “glycan array binding signal (z-score)” value [39] was -0.359. The “glycan array binding signal (z-score)” value [40] was -0.364.
